Measurements published in PubChem BioAssay AID2451 (National Center for Advancing Translational Sciences (NCATS), 2010).
About 2,100 (0.72%) of roughly 290,000 compounds were called active. Inconclusive means that the source gave no clear call. Such entries were picked first, then a sample of the others. Calls come from the whole dose curve; as a rule, active = well fitted inhibition curve with a large enough effect; inconclusive = small, poorly fitted or top-dose-only effect, or effect the other way; inactive = flat fitted curve, though single readings scatter. Potencies beside an inconclusive call are fits to weak or partial responses and may not hold up.

biological target: Fructose-bisphosphate aldolase (Giardia intestinalis (strain ATCC 50803 / WB clone C6)) (UniProt A8B2U2); assay: qHTS Assay for Inhibitors of Fructose-1,6-bisphosphate Aldolase from Giardia Lamblia; details: purified Giardia FBPA; series mostly up to 59.6 µM; note: nearly all actives have a fitted effect of over 55% in size
Sequence of UniProt A8B2U2 (A8B2U2 whole entry, looked up): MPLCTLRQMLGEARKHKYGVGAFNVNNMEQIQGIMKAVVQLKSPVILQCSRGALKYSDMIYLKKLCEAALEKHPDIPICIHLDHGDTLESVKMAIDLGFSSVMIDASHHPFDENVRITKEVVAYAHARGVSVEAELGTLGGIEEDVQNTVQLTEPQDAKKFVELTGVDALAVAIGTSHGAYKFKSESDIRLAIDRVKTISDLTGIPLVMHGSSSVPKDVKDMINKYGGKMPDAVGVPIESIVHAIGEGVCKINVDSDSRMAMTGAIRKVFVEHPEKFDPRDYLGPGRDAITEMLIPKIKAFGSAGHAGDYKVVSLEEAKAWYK
Text: Assay Provider: Osnat Herzberg, University of Maryland
The objective of this project is to obtain compounds that inhibit Giardia lamblia growth. G. lamblia is a human pathogen which afflicts impoverished nations; it is the most common cause of outbreaks of diarrhea in the United States. During the course of our study of potential drug targets in Giardia, we have identified the Class II (Zn2+ functions in electrophilic catalysis) fructose-1,6-bisphosphate aldolase (FBPA) as an excellent candidate for drug targeting. FBPA is a key glycolytic pathway enzyme, essential for G. lamblia survival. The human FBPA belongs to the Class I aldolases, which have a different substrate binding site structure and a radically different catalytic mechanism (employing a lysine-Schiff base intermediate). Therefore, affinity-based or mechanism-based inhibitors of the Giardia FBPA are expected not to interfere with the catalytic function of the human FBPA.
A glyceraldehyde-3-phosphate dehydrogenase/triose phosphate isomerase/NAD/arsenate coupled assay was adapted to the 1536-well HTP format for use in the primary screen. This was done by coupling it to a diaphorase/resazurin/resorufin reaction that can be monitored by fluorescence (excitation, 544 nm; emission, 590 nm). Compounds identified in this screen will be further evaluated by coupling the glycerol-3-phosphate/triose phosphate isomerase/NADH assay to a phenazine methosulfate/tetranitroblue tetrazolium color reaction. False positives due to the dehydrogenases and diaphorase inhibition will be eliminated, and selectivity assay will triage inhibitors of mammalian triose phosphate isomerase and the Class I FBPA. G. lamblia FBPA inhibitors identified by the in vitro analyses will be examined for growth inhibition of Giardia trophozoites, and for cytotoxicity in human cells.
Step,Parameter,Value,Description
1,Enzyme reagent,2 uL,40 nM FBPA
2,Compound,23 nL,3.68 nM-57.5 uM final concentration
3,Time,10 min,RT Incubation
4,Substrate/detection Reagent,2 uL,Substrate + enzyme coupling system + AmpLite Red kit
5,Time,20 min,RT Incubation
6,Detector,525 nm/598 nm (Fluorescence),ViewLux Fluorescence Read (Read 1)
1,Medium-binding black solid-bottom Kalypsys plates. FRD or Kalypsys dispenser, 2 uL of FBPA enzyme. Bottle kept at 4C.
2,Compound Library (10 mM ,1:5 dilution). Pin-transferred for a [final] range of 3.68 nM-57.5 uM.
4,FRD or Kalypsys dispenser, 2 uL of reaction mixture. Bottle kept at 4C and covered in foil to protect from light.
6,ViewLux Protocol 1194; Excitation filter wheel A (525/20 Pol; BODIPY TMR FP), Emission filter wheel B (598/25 S; BODIPY TMR FP S).
Keywords: Fructose-bisphosphate aldolase, FBPA , Giardia lamblia , Giardia, HTS, Inhibitors
Potency is the fitted concentration of half-maximal effect; tags give direction and shape of the fitted curve.

Compound	Potency
Cc1cccc(/C=C2\CCC(=C3SCCCS3)C2=O)c1	inactive
O=C(Nc1ccc(SC(F)F)cc1)c1ccc2nccnc2c1	inconclusive: 17.7 µM [inhibitor, partial curve]
O=c1ccn(-c2cccc(C(F)(F)F)c2)nc1-c1ccn(-c2ccccc2)n1	active: 31.6 µM
O=[N+]([O-])c1cc(C(F)(F)F)cc([N+](=O)[O-])c1NCCNC(=S)Nc1ccc(Cl)c(Cl)c1	inactive
CN(CC1CCCO1)S(=O)(=O)c1ccc(C(=O)Nc2nc3cc4c(cc3s2)OCO4)cc1 (stereo not given)	inconclusive: 17.8 µM [inhibitor, single point]
COc1ccc(CNC(=O)c2ccc(-c3ccccc3)cc2)cc1OC	inactive
c1coc(-c2nc3nc4ccccc4n3nc2-c2ccco2)c1	inconclusive: 3.55 µM [inhibitor, full curve]
COc1cc([N+](=O)[O-])ccc1NC(=S)N1CCOCC1	inconclusive: 22.4 µM [inhibitor, partial curve]
CC(C)C(=O)NC(c1ccccc1)c1cc([N+](=O)[O-])c2cccnc2c1O (stereo not given)	inconclusive: 25.1 µM [inhibitor, single point]
COc1ccc(CCN(C)C(=S)NC(=O)c2ccc(F)cc2Cl)cc1OC	inconclusive: 19.9 µM [inhibitor, single point]
Cc1ccc(CN(C(=O)c2csnn2)C(C(=O)NC2CCCC2)c2ccccn2)cc1 (stereo not given)	inactive
COc1ccc(-c2c(C#N)c(N)nc3c2CCCCCC3)cc1OC	inactive
Cc1cc(C)c(OCCN(C)C)c(Cl)c1	inconclusive: 17.7 µM [inhibitor, partial curve]
CCOc1ccc(OCC)c(S(=O)(=O)n2ccnc2C)c1	inconclusive: 39.8 µM [inhibitor, single point]
Cc1ccc(N=Cc2cc(Cl)cc(Cl)c2O)nc1	inconclusive: 14.1 µM [inhibitor, partial curve]
CCOC(=O)c1csc(NC(=O)CN2CCOCC2)n1	inconclusive: 15.8 µM [inhibitor, partial curve]
COC(=O)c1ccc(-c2csc(NC(=O)c3ccc(S(=O)(=O)N4CCc5ccccc5C4)cc3)n2)cc1	inactive
COc1ccc2nc3sc(C(=O)NCCN4CCc5ccccc5C4)cc3cc2c1	inconclusive: 15.8 µM [inhibitor, single point]
CC(C)[n+]1ccn(C2=C([O-])c3ccccc3C(=O)/C2=N\S(=O)(=O)c2ccccc2)c1	inconclusive: 0.398 µM [inhibitor, full curve]
C=Cc1c(C)c2cc3[nH]c(cc4nc(cc5nc(cc1[nH]2)C(C)=C5CCC(=O)O)C(CCC(=O)O)=C4C)c(C)c3C=C	inconclusive: 11.2 µM [inhibitor, partial curve]
C/C=C/c1ccc(OCC(O)CN2CCCCC2CC)c(OC)c1 (stereo not given)	inconclusive: 17.7 µM [inhibitor, partial curve]
C=CCc1cccc(/C=N/NC(=O)c2ccccc2OC)c1O	inconclusive: 17.7 µM [inhibitor, partial curve]
O=C(NNC(=O)c1cc(O)c(O)c(O)c1)NC1CCCCC1	inconclusive: 17.7 µM [inhibitor, single point]
CC(C)N(C(=O)Nc1ccc2nsnc2c1)C(C)C	inconclusive: 3.97 µM [inhibitor, full curve]

Compound	Potency
O=S(=O)(Nc1ccc(N=Nc2ccc(O)c3ccccc23)cc1)c1ccccc1	inconclusive: 4.46 µM [inhibitor, full curve, poor fit]
CC(C)(C)C1CCC(N2CCN(c3ccccc3)CC2)CC1 (stereo not given)	inconclusive: 25.1 µM [inhibitor, single point]
COC(=O)Cc1[nH]n(-c2nc3ccccc3s2)c(=O)c1C(C)=O	inconclusive: 17.7 µM [inhibitor, partial curve]
COc1ccc(CNCc2ccc(C)cc2)c(OC)c1	inconclusive: 28.2 µM [inhibitor, partial curve]
CC(=O)Nc1ccc(S(=O)(=O)/N=C2/NC(=O)/C(=C\c3ccco3)S2)cc1	inconclusive: 19.9 µM [inhibitor, single point]
C=CCOc1ccc(CNn2cn[nH]c2=S)cc1OCC	inconclusive: 12.6 µM [inhibitor, partial curve]
CCCc1cc(=O)oc2c3c(cc(OCC(=O)NCc4ccccn4)c12)OC(C)(C)CC3	inconclusive: 22.4 µM [activator, partial curve]
Cc1cc(=O)[nH]c(N/N=C2/CCCC/C2=C\c2ccccc2)n1	inconclusive: 19.9 µM [inhibitor, partial curve]
COc1ccc2c(c1)OC/C(=C\c1ccc(OC)c(O)c1)C2=O	inconclusive: 19.9 µM [inhibitor, partial curve]
Cn1cnnc1SCC(=O)c1ccc2c(c1)CCCC2	inconclusive: 17.7 µM [inhibitor, partial curve]
CCOC(=O)C1=C(Cc2ccc(OC)cc2)C(=O)c2ccccc2C1=O	active: 1.41 µM
CCN1CCC(NCC2CCCCC2)CC1	inconclusive: 35.5 µM [inhibitor, single point]
COC(=O)c1ccccc1NC(=O)CCS(=O)(=O)c1ccc(Br)cc1	inactive
CC(=O)Oc1ccc(/C=N/NC2=NS(=O)(=O)c3ccccc32)cc1	active: 7.94 µM
CCOC(=O)/C(=N/Nc1ccc(OC)cc1)Sc1nnc(CCc2ccccc2)n1-c1ccccc1	inconclusive: 19.9 µM [inhibitor, partial curve]
CCOc1cc(CNCCc2ccccc2)ccc1OCC(=O)NC(C)(C)C	inactive
Cc1c(CCO)c(=O)n2c([nH]c3ccccc32)c1C#N	active: 25.1 µM
COc1ccccc1N1CCN(C(CNC(=O)c2ccc3c(c2)OCO3)c2cccnc2)CC1 (stereo not given)	inactive
O=C(NCc1ccncc1)C(=O)N/N=C/c1ccccn1	inconclusive: 25.1 µM [inhibitor, single point]
CC(C)(CO)CNC(=O)CCc1nnc(C2(c3ccc(Cl)cc3)CCC2)o1	inactive
CC(=O)Oc1c(/C=C(\C#N)C(N)=O)[nH]c2ccccc12	inconclusive: 35.4 µM [inhibitor, single point]
Cc1noc(C)c1CSc1nc2ccccc2c(=O)n1-c1ccccc1	inactive
COc1cccc(C(=O)/C=C2\Sc3ccccc3N2C)c1	inconclusive: 15.8 µM [inhibitor, single point]
O=C(Nc1ccc(F)cc1)C(=O)c1c(O)[nH]c2ccc([N+](=O)[O-])cc12	inconclusive: 7.92 µM [inhibitor, partial curve]

Compound	Potency
Cc1cccc(NC(=O)CSCC(=O)Nc2nnc(C3CC3)s2)c1	inconclusive: 15.8 µM [inhibitor, partial curve]
CN1CCN(c2ccc(C(F)(F)F)cc2N)CC1	inactive
Cc1cc(C)c(NC(=S)NCC2CCN(C(C)c3ccccc3)C2)c(C)c1 (stereo not given)	active: 1.99 µM
COc1cc(CNCc2ccc(OC)c(OC)c2OC)cc(OC)c1	inconclusive: 19.9 µM [inhibitor, partial curve]
O=C(Nc1cccc(Cl)c1)c1cnc[nH]1	inactive
CCN(CC)S(=O)(=O)c1ccc(Cl)c(NC(=O)CCCCl)c1	inconclusive: 19.9 µM [inhibitor, partial curve]
COc1ccccc1CN1CCCC(C(=O)N2CCCCC2)C1 (stereo not given)	inconclusive: 17.7 µM [inhibitor, partial curve, poor fit]
Cc1ccc(C(=O)CSC2=C(C#N)C(c3ccco3)C3=C(CCCC3=O)N2)cc1 (stereo not given)	inactive
CCCCc1cc(=O)oc2cc(OCc3nn[nH]n3)c(Cl)cc12	inconclusive: 22.3 µM [activator, partial curve]
COC(=O)C(NC(=O)CCc1c(C)nc2ncnn2c1C)C(C)C (stereo not given)	inactive
Cc1n[nH]c(C)c1CCCCOc1ccc([N+](=O)[O-])cc1	inconclusive: 31.6 µM [inhibitor, single point]
COc1ccc(OC)c(C2CC(=O)N3CN(c4ccc(C)c(Cl)c4)CSC3=C2C#N)c1 (stereo not given)	active: 5 µM
O=C(CCN1CCc2ccccc2C1)Nc1ccc2c(c1)OCO2	inconclusive: 19.9 µM [inhibitor, single point]
CCOC(=O)C(N)CSC1CC(=O)N(c2ccc(OCC)cc2)C1=O (stereo not given)	inconclusive: 28.2 µM [inhibitor, single point]
COc1cc(/C=N/NC(=O)CN(Cc2ccccc2)S(=O)(=O)c2ccc3c(c2)OCCO3)ccc1O	inactive
CCOC(=O)c1nn(-c2ccc(Cl)cc2)c2nc(Nc3ccccc3)cc(=O)n12	inactive
C[C@H]1COc2c(C3(N)CC3)c(F)cc3c(=O)c(C(=O)O)cn1c23	inconclusive: 19.9 µM [inhibitor, single point]
CSCCC1(C(=O)O)NC(c2ccccc2O)C2C(=O)N(C(C)C)C(=O)C21 (stereo not given)	inconclusive: 3.97 µM [inhibitor, partial curve]
C[C@H](NC(=O)c1nc[nH]c1C(=O)N[C@@H](CCCCNC(=O)OC(C)(C)C)C(=O)OC(C)(C)C)C(=O)OCc1ccccc1	inconclusive: 10 µM [inhibitor, partial curve]
Cc1[nH]n(-c2ccccc2)c(=O)c1N=Nc1cccc(Cl)c1	inconclusive: 8.91 µM [inhibitor, partial curve]
O=C(NNC(=S)Nc1ccc(F)cc1F)c1ccco1	inconclusive: 7.08 µM [inhibitor, partial curve]
COc1ccc(Cl)cc1NC(=O)[C@@]1(CC(=O)O)CC(/C=C/c2ccccc2)=NO1	inactive
